{
  "source": "the antibiotic and cytotoxicity screens of Wong et al. (2023)",
  "key": {"HSkMC": {"test_system": "HSkMC", "assay": "cytotoxicity call (relative viability < 0.9)", "conditions": "10 µM"}, "HepG2": {"test_system": "HepG2", "assay": "cytotoxicity call (relative viability < 0.9)", "conditions": "10 µM"}, "S. aureus RN4220": {"test_system": "S. aureus RN4220", "assay": "growth inhibition call (relative growth <= 0.2)", "conditions": "50 µM"}},
  "note": "This is one part of the list.",
  "data": [
    {"smiles": "CO[C@H]1CN(C)C(=O)c2ccc(NC(=O)Nc3cccc(F)c3)cc2OC[C@@H](C)N(C(=O)Nc2c(C)noc2C)C[C@H]1C", "values": [
      {"measurement": "cytotoxicity call", "setting": "HSkMC", "result": "inactive"},
      {"measurement": "cytotoxicity call", "setting": "HepG2", "result": "inactive"},
      {"measurement": "growth inhibition call", "setting": "S. aureus RN4220", "result": "inactive"}
    ]},
    {"smiles": "C[C@@H]1CCCCO[C@H](CN(C)S(=O)(=O)c2cn(C)cn2)[C@@H](C)CN([C@@H](C)CO)C(=O)c2cc(NS(=O)(=O)c3cn(C)cn3)ccc2O1", "values": [
      {"measurement": "cytotoxicity call", "setting": "HSkMC", "result": "inactive"},
      {"measurement": "cytotoxicity call", "setting": "HepG2", "result": "inactive"},
      {"measurement": "growth inhibition call", "setting": "S. aureus RN4220", "result": "inactive"}
    ]},
    {"smiles": "Cc1noc(C)c1NC(=O)N(C)C[C@@H]1Oc2c(NC(=O)Nc3ccc(C(F)(F)F)cc3)cccc2C(=O)N([C@H](C)CO)C[C@H]1C", "values": [
      {"measurement": "cytotoxicity call", "setting": "HSkMC", "result": "inactive"},
      {"measurement": "cytotoxicity call", "setting": "HepG2", "result": "inactive"},
      {"measurement": "growth inhibition call", "setting": "S. aureus RN4220", "result": "inactive"}
    ]},
    {"smiles": "C=CC[C@@H](CC(=O)N(CCO)Cc1ccccc1)C(=O)N[C@@H](COC(=O)[C@@H](CC=C)CC(=O)OC(C)(C)C)Cc1c[nH]c2ccccc12", "values": [
      {"measurement": "cytotoxicity call", "setting": "HSkMC", "result": "inactive"},
      {"measurement": "cytotoxicity call", "setting": "HepG2", "result": "inactive"},
      {"measurement": "growth inhibition call", "setting": "S. aureus RN4220", "result": "inactive"}
    ]},
    {"smiles": "C[C@H](CO)N1C[C@H](C)[C@H](CN(C)S(=O)(=O)c2ccc(F)cc2)Oc2ncc(C#Cc3cccc(F)c3)cc2C1=O", "values": [
      {"measurement": "cytotoxicity call", "setting": "HSkMC", "result": "inactive"},
      {"measurement": "cytotoxicity call", "setting": "HepG2", "result": "active"},
      {"measurement": "growth inhibition call", "setting": "S. aureus RN4220", "result": "inactive"}
    ]},
    {"smiles": "C=CCC[C@H](Cc1ccc(F)cc1)C(=O)OC[C@@H](NC(=O)[C@@H](CC=C)CC(=O)N(CCO)Cc1ccccc1)C(C)(C)C", "values": [
      {"measurement": "cytotoxicity call", "setting": "HSkMC", "result": "inactive"},
      {"measurement": "cytotoxicity call", "setting": "HepG2", "result": "inactive"},
      {"measurement": "growth inhibition call", "setting": "S. aureus RN4220", "result": "inactive"}
    ]},
    {"smiles": "COc1cc2c(cc1OC)CN(C(=O)[C@H]1[C@@H]3C(=O)O[C@@H](c4ccccc4)[C@@H](c4ccccc4)N3[C@@H](c3ccc(OCCO)cc3)[C@]13C(=O)Nc1ccc(C#CC4(O)CCCCCC4)cc13)CC2", "values": [
      {"measurement": "cytotoxicity call", "setting": "HSkMC", "result": "inactive"},
      {"measurement": "cytotoxicity call", "setting": "HepG2", "result": "inactive"},
      {"measurement": "growth inhibition call", "setting": "S. aureus RN4220", "result": "inactive"}
    ]},
    {"smiles": "CCNC(=O)C[C@@H]1C=C[C@@H](NC(=O)C2CC2)[C@H](CO)O1", "values": [
      {"measurement": "cytotoxicity call", "setting": "HSkMC", "result": "inactive"},
      {"measurement": "cytotoxicity call", "setting": "HepG2", "result": "inactive"},
      {"measurement": "growth inhibition call", "setting": "S. aureus RN4220", "result": "inactive"}
    ]},
    {"smiles": "C[C@H]1CN([C@@H](C)CO)C(=O)c2cc(NS(=O)(=O)c3cn(C)cn3)ccc2O[C@H]1CN(C)S(=O)(=O)c1ccc(F)cc1", "values": [
      {"measurement": "cytotoxicity call", "setting": "HSkMC", "result": "inactive"},
      {"measurement": "cytotoxicity call", "setting": "HepG2", "result": "inactive"},
      {"measurement": "growth inhibition call", "setting": "S. aureus RN4220", "result": "inactive"}
    ]},
    {"smiles": "Cc1noc(C)c1NC(=O)Nc1ccc2c(c1)C(=O)N([C@H](C)CO)C[C@@H](C)[C@@H](CN(C)Cc1ccc(Oc3ccccc3)cc1)O2", "values": [
      {"measurement": "cytotoxicity call", "setting": "HSkMC", "result": "inactive"},
      {"measurement": "cytotoxicity call", "setting": "HepG2", "result": "inactive"},
      {"measurement": "growth inhibition call", "setting": "S. aureus RN4220", "result": "inactive"}
    ]},
    {"smiles": "CC(C)C#Cc1ccc2c(c1)O[C@@H](CN(C)C(=O)c1cccc(F)c1)[C@@H](C)CN([C@@H](C)CO)S2(=O)=O", "values": [
      {"measurement": "cytotoxicity call", "setting": "HSkMC", "result": "inactive"},
      {"measurement": "cytotoxicity call", "setting": "HepG2", "result": "inactive"},
      {"measurement": "growth inhibition call", "setting": "S. aureus RN4220", "result": "inactive"}
    ]},
    {"smiles": "CC(C)NC(=O)Nc1cccc2c1O[C@H](CN(C)C(=O)Nc1ccc3c(c1)OCO3)[C@@H](C)CN([C@@H](C)CO)C2=O", "values": [
      {"measurement": "cytotoxicity call", "setting": "HSkMC", "result": "inactive"},
      {"measurement": "cytotoxicity call", "setting": "HepG2", "result": "inactive"},
      {"measurement": "growth inhibition call", "setting": "S. aureus RN4220", "result": "inactive"}
    ]},
    {"smiles": "COCC(=O)Nc1ccc2c(c1)C(=O)N(C)[C@@H]1CC[C@@H](CC(=O)NCc3ccccc3Cl)O[C@H]1CO2", "values": [
      {"measurement": "cytotoxicity call", "setting": "HSkMC", "result": "inactive"},
      {"measurement": "cytotoxicity call", "setting": "HepG2", "result": "inactive"},
      {"measurement": "growth inhibition call", "setting": "S. aureus RN4220", "result": "inactive"}
    ]},
    {"smiles": "COCC#Cc1ccc2c(c1)O[C@H](CN(C)C(=O)CN(C)C)[C@@H](C)CN([C@@H](C)CO)S2(=O)=O", "values": [
      {"measurement": "cytotoxicity call", "setting": "HSkMC", "result": "inactive"},
      {"measurement": "cytotoxicity call", "setting": "HepG2", "result": "inactive"},
      {"measurement": "growth inhibition call", "setting": "S. aureus RN4220", "result": "inactive"}
    ]},
    {"smiles": "C[C@@H]1CN([C@@H](C)CO)C(=O)c2cc(-c3cccnc3)cnc2O[C@H]1CN(C)Cc1ccc(Oc2ccccc2)cc1", "values": [
      {"measurement": "cytotoxicity call", "setting": "HSkMC", "result": "inactive"},
      {"measurement": "cytotoxicity call", "setting": "HepG2", "result": "inactive"},
      {"measurement": "growth inhibition call", "setting": "S. aureus RN4220", "result": "inactive"}
    ]},
    {"smiles": "COc1ccc(NC(=O)Nc2cccc3c2O[C@@H](CN(C)Cc2ccc(C(=O)Nc4ccccc4N)cc2)[C@@H](C)CN([C@@H](C)CO)C3=O)cc1", "values": [
      {"measurement": "cytotoxicity call", "setting": "HSkMC", "result": "inactive"},
      {"measurement": "cytotoxicity call", "setting": "HepG2", "result": "inactive"},
      {"measurement": "growth inhibition call", "setting": "S. aureus RN4220", "result": "inactive"}
    ]},
    {"smiles": "CO[C@H](CN(C)S(=O)(=O)c1cccc(Cl)c1)[C@H](C)CN([C@@H](C)CO)S(=O)(=O)c1ccc(Cl)cc1", "values": [
      {"measurement": "cytotoxicity call", "setting": "HSkMC", "result": "inactive"},
      {"measurement": "cytotoxicity call", "setting": "HepG2", "result": "inactive"},
      {"measurement": "growth inhibition call", "setting": "S. aureus RN4220", "result": "inactive"}
    ]},
    {"smiles": "C[C@@H]1CN([C@H](C)CO)C(=O)c2cccc(NS(C)(=O)=O)c2O[C@@H]1CN(C)Cc1ccc2c(c1)OCO2", "values": [
      {"measurement": "cytotoxicity call", "setting": "HSkMC", "result": "inactive"},
      {"measurement": "cytotoxicity call", "setting": "HepG2", "result": "inactive"},
      {"measurement": "growth inhibition call", "setting": "S. aureus RN4220", "result": "inactive"}
    ]},
    {"smiles": "O=C1CCN(c2ccccc2)N1", "values": [
      {"measurement": "cytotoxicity call", "setting": "HSkMC", "result": "inactive"},
      {"measurement": "cytotoxicity call", "setting": "HepG2", "result": "inactive"},
      {"measurement": "growth inhibition call", "setting": "S. aureus RN4220", "result": "inactive"}
    ]},
    {"smiles": "C[C@H]1CN([C@@H](C)CO)C(=O)Cc2cc(NC(=O)Cn3cnnn3)ccc2O[C@@H]1CN(C)C(=O)Nc1cccc2ccccc12", "values": [
      {"measurement": "cytotoxicity call", "setting": "HSkMC", "result": "inactive"},
      {"measurement": "cytotoxicity call", "setting": "HepG2", "result": "inactive"},
      {"measurement": "growth inhibition call", "setting": "S. aureus RN4220", "result": "inactive"}
    ]},
    {"smiles": "CC(C)CC#Cc1cnc2c(c1)C(=O)N([C@@H](C)CO)C[C@@H](C)[C@@H](CN(C)C(=O)CN1CCOCC1)O2", "values": [
      {"measurement": "cytotoxicity call", "setting": "HSkMC", "result": "inactive"},
      {"measurement": "cytotoxicity call", "setting": "HepG2", "result": "inactive"},
      {"measurement": "growth inhibition call", "setting": "S. aureus RN4220", "result": "inactive"}
    ]},
    {"smiles": "Cc1noc(C)c1NC(=O)Nc1cccc2c1O[C@H](CN(C)Cc1ccc(Oc3ccccc3)cc1)[C@H](C)CN([C@@H](C)CO)C2=O", "values": [
      {"measurement": "cytotoxicity call", "setting": "HSkMC", "result": "inactive"},
      {"measurement": "cytotoxicity call", "setting": "HepG2", "result": "inactive"},
      {"measurement": "growth inhibition call", "setting": "S. aureus RN4220", "result": "inactive"}
    ]},
    {"smiles": "CCCNC(=O)N1C[C@]2(CN(C2)S(=O)(=O)c2ccccc2)c2c(n(c3cc(ccc23)OC)C)[C@H]1CO", "values": [
      {"measurement": "cytotoxicity call", "setting": "HSkMC", "result": "inactive"},
      {"measurement": "cytotoxicity call", "setting": "HepG2", "result": "active"},
      {"measurement": "growth inhibition call", "setting": "S. aureus RN4220", "result": "inactive"}
    ]},
    {"smiles": "COc1ccc(NC(=O)N(C)C[C@H]2Oc3ccc(NC(=O)Cn4cnnn4)cc3C(=O)N([C@@H](C)CO)C[C@@H]2C)cc1", "values": [
      {"measurement": "cytotoxicity call", "setting": "HSkMC", "result": "inactive"},
      {"measurement": "cytotoxicity call", "setting": "HepG2", "result": "inactive"},
      {"measurement": "growth inhibition call", "setting": "S. aureus RN4220", "result": "inactive"}
    ]},
    {"smiles": "COC(=O)CCn1cc(F)c(N)nc1=O", "values": [
      {"measurement": "cytotoxicity call", "setting": "HSkMC", "result": "inactive"},
      {"measurement": "cytotoxicity call", "setting": "HepG2", "result": "inactive"},
      {"measurement": "growth inhibition call", "setting": "S. aureus RN4220", "result": "inactive"}
    ]},
    {"smiles": "C[C@@H]1CCCCO[C@@H](CN(C)CC2CC2)[C@@H](C)CN([C@H](C)CO)C(=O)c2cc(NS(=O)(=O)c3ccc(Cl)cc3)ccc2O1", "values": [
      {"measurement": "cytotoxicity call", "setting": "HSkMC", "result": "inactive"},
      {"measurement": "cytotoxicity call", "setting": "HepG2", "result": "inactive"},
      {"measurement": "growth inhibition call", "setting": "S. aureus RN4220", "result": "inactive"}
    ]},
    {"smiles": "C[C@@H]1CCCCO[C@@H](CN(C)Cc2ccc(C(=O)O)cc2)[C@H](C)CN([C@H](C)CO)C(=O)c2cc(NS(=O)(=O)c3cccs3)ccc2O1", "values": [
      {"measurement": "cytotoxicity call", "setting": "HSkMC (human skeletal muscle cells)", "result": "inactive"},
      {"measurement": "cytotoxicity call", "setting": "HepG2", "result": "inactive"},
      {"measurement": "growth inhibition call", "setting": "S. aureus RN4220", "result": "inactive"}
    ]}
  ]
}
